Values marked as one replicate rest on one cluster of the flow cell; about a third of the high ones do not repeat.
These sequences were tested on ATP (assay: switch fluorescence ratio, 500 uM ATP over buffer (Cy3 cluster intensity, sum of 5 cycles each) (fold (ratio)); higher = stronger signal-on switching upon ATP binding; sequences stand for … in TCGTCGGCAGCGTCAGATGTGTATAAGAGACAGTTTTTTTTTTTTTTTTTTTTTTTTT…TC). Conditions: aptamer strand: ATP DNA aptamer (quencher-CACCTGGGGGAGTATTGCGGAGGAAGG + anchor), 100 nM annealed; ATP concentration: 500 uM; one replicate.
In short: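 Values give the fluorescence ratio for each switch-domain sequence, averaged from per-cluster ratios of summed target-cycle to summed buffer-cycle Cy3 intensity. The Cy3-labelled switching-strand clusters sat on a modified Illumina MiSeq flow-cell, were annealed to 100 nM quencher-labelled ATP aptamer, and were imaged in selection buffer, then after 15 min with 500 uM ATP at 22 °C. Five cycles ran with NaOH stripping and re-annealing between them, and clusters outside 100-1000 RFU were excluded.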
Sequence AACGCCTATA has a switch fluorescence ratio of 1.05.
In the case of AACGCGATCA, the switch fluorescence ratio is reported as 1.29.
Sequence AACGCGGGA has a switch fluorescence ratio of 1.04.
For AACGCTTCGT, the switch fluorescence ratio was 1.01.
AACGGAAACA gave a switch fluorescence ratio of 1.06.
Work on AACGGAGGTC yielded a switch fluorescence ratio of 1.
AACGGAGTGT was tested, and the switch fluorescence ratio was 0.935.
Sequence AACGGATCTC has a switch fluorescence ratio of 0.998.
Sequence AACGGCGACT has a switch fluorescence ratio of 1.09.
In the case of AACGGCGTGT, the switch fluorescence ratio is reported as 1.01.
In the case of AACGGCTCGG, the switch fluorescence ratio is reported as 0.979.
AACGGGCGCG was tested, and the switch fluorescence ratio was 0.979.
With AACGGGGCCC the switch fluorescence ratio was 0.981.
Work on AACGGGTCGG yielded a switch fluorescence ratio of 1.01.
For AACGGTCCAC, the switch fluorescence ratio was 1.2.
AACGGTCGGC gave a switch fluorescence ratio of 0.975.
Work on AACGGTGCTT yielded a switch fluorescence ratio of 0.9.
AACGGTGTCA showed a switch fluorescence ratio of 0.979.
AACGGTTGC was tested, and the switch fluorescence ratio was 1.02.
For AACGTACGCC, the switch fluorescence ratio was 1.48.
Work on AACGTAGGGT yielded a switch fluorescence ratio of 1.01.
For AACGTCACGG, the switch fluorescence ratio was 1.49.
AACGTCAGCG was tested, and the switch fluorescence ratio was 0.964.
Sequence AACGTCATCC has a switch fluorescence ratio of 1.2.
Work on AACGTCGCAC yielded a switch fluorescence ratio of 1.09.
With AACGTCGGAC the switch fluorescence ratio was 1.07.
AACGTGACAC showed a switch fluorescence ratio of 1.22.
AACGTGGGCA was tested, and the switch fluorescence ratio was 0.988.
AACGTGTTTA showed a switch fluorescence ratio of 1.05.
Sequence AACGTTATTG has a switch fluorescence ratio of 1.04.
With AACTAAACGA the switch fluorescence ratio was 1.1.
With AACTACTCTT the switch fluorescence ratio was 1.03.
In the case of AACTAGACTA, the switch fluorescence ratio is reported as 1.02.
AACTAGCACC showed a switch fluorescence ratio of 1.07.
AACTAGTCCT was tested, and the switch fluorescence ratio was 1.06.
AACTATACGA showed a switch fluorescence ratio of 1.23.
AACTCAACAG gave a switch fluorescence ratio of 1.07.
In the case of AACTCCCGTG, the switch fluorescence ratio is reported as 1.38.
AACTCGCCAC showed a switch fluorescence ratio of 1.2.
In the case of AACTCGGCGT, the switch fluorescence ratio is reported as 0.994.
With AACTCGTACA the switch fluorescence ratio was 1.1.
AACTCTCAGG was tested, and the switch fluorescence ratio was 1.3.
For AACTGGAGAA, the switch fluorescence ratio was 0.947.
AACTGGGACG showed a switch fluorescence ratio of 1.03.
Work on AACTGGTAAC yielded a switch fluorescence ratio of 1.03.
AACTGGTCTT gave a switch fluorescence ratio of 0.948.
AACTGTGATG was tested, and the switch fluorescence ratio was 1.
For AACTTAATCT, the switch fluorescence ratio was 0.964.
AACTTATGGG gave a switch fluorescence ratio of 1.05.
In the case of AACTTCAAGT, the switch fluorescence ratio is reported as 1.02.
With AACTTCACTA the switch fluorescence ratio was 1.13.
For AACTTGGGCG, the switch fluorescence ratio was 0.989.
Sequence AACTTGTGTT has a switch fluorescence ratio of 1.01.
AACTTTGAC gave a switch fluorescence ratio of 1.06.
Work on AACTTTGCGC yielded a switch fluorescence ratio of 1.01.
AACTTTGTTC was tested, and the switch fluorescence ratio was 1.03.
In the case of AACTTTTCCG, the switch fluorescence ratio is reported as 1.01.
AACTTTTTCA showed a switch fluorescence ratio of 0.998.
In the case of AAGAAAATT, the switch fluorescence ratio is reported as 0.977.
In the case of AAGAAATGGC, the switch fluorescence ratio is reported as 0.951.
AAGAAATTAG showed a switch fluorescence ratio of 0.966.
For AAGAACGAAG, the switch fluorescence ratio was 0.941.
With AAGAACTTTT the switch fluorescence ratio was 0.945.
Work on AAGAATCTCC yielded a switch fluorescence ratio of 1.08.
For AAGAATGACA, the switch fluorescence ratio was 1.04.
AAGACAAGGT gave a switch fluorescence ratio of 1.01.
In the case of AAGACATACC, the switch fluorescence ratio is reported as 1.42.
AAGACGGTCA was tested, and the switch fluorescence ratio was 0.988.
Work on AAGACTAGGA yielded a switch fluorescence ratio of 0.958.
For AAGACTTCCT, the switch fluorescence ratio was 1.87.
With AAGAGCCCCA the switch fluorescence ratio was 1.05.
AAGAGGCA gave a switch fluorescence ratio of 0.996.
In the case of AAGAGGGAAT, the switch fluorescence ratio is reported as 1.
AAGAGTGGAT gave a switch fluorescence ratio of 1.02.
For AAGATAATT, the switch fluorescence ratio was 0.991.
Work on AAGATACTTT yielded a switch fluorescence ratio of 1.04.
Work on AAGATATAAC yielded a switch fluorescence ratio of 0.984.
Sequence AAGATATAAG has a switch fluorescence ratio of 0.995.
Sequence AAGATCCGTG has a switch fluorescence ratio of 0.949.
AAGATCGCTG gave a switch fluorescence ratio of 0.93.
AAGATCGTCA was tested, and the switch fluorescence ratio was 0.965.
AAGATCTATT gave a switch fluorescence ratio of 0.978.
For AAGATGCTCG, the switch fluorescence ratio was 1.
Work on AAGATGGGAA yielded a switch fluorescence ratio of 1.04.
For AAGATGTCTG, the switch fluorescence ratio was 0.98.
AAGATTGACT gave a switch fluorescence ratio of 1.03.
AAGATTTCCC showed a switch fluorescence ratio of 1.01.
With AAGCAACAGC the switch fluorescence ratio was 1.1.
Sequence AAGCAGAACT has a switch fluorescence ratio of 1.17.
AAGCAGCAGT was tested, and the switch fluorescence ratio was 1.08.
Sequence AAGCAGCCTG has a switch fluorescence ratio of 1.01.
AAGCAGCGCC gave a switch fluorescence ratio of 1.02.
For AAGCAGGCTG, the switch fluorescence ratio was 0.96.
For AAGCAGGGTC, the switch fluorescence ratio was 1.03.
In the case of AAGCAGTAAT, the switch fluorescence ratio is reported as 1.04.
Sequence AAGCAGTGGC has a switch fluorescence ratio of 1.11.
AAGCATCGCC was tested, and the switch fluorescence ratio was 0.982.
AAGCCAAGGA was tested, and the switch fluorescence ratio was 0.982.
Sequence AAGCCAGACC has a switch fluorescence ratio of 1.03.
AAGCCCGAGT gave a switch fluorescence ratio of 0.983.
For AAGCCCGCAA, the switch fluorescence ratio was 2.17.
With AAGCCGGTA the switch fluorescence ratio was 1.03.
Work on AAGCCGTCTA yielded a switch fluorescence ratio of 1.01.
For AAGCCTCCCT, the switch fluorescence ratio was 1.21.
With AAGCCTGACC the switch fluorescence ratio was 1.81.
In the case of AAGCGAACCA, the switch fluorescence ratio is reported as 1.01.
With AAGCGATCCT the switch fluorescence ratio was 1.04.
Work on AAGCGCCAAG yielded a switch fluorescence ratio of 1.04.
With AAGCGCGGAT the switch fluorescence ratio was 0.99.
AAGCGCGTTA gave a switch fluorescence ratio of 0.995.
For AAGCGGGAAT, the switch fluorescence ratio was 0.982.
Work on AAGCGGGCGT yielded a switch fluorescence ratio of 1.03.
With AAGCGGGGG the switch fluorescence ratio was 1.07.
With AAGCGGGTCT the switch fluorescence ratio was 1.03.
Sequence AAGCGTTTTC has a switch fluorescence ratio of 1.01.
With AAGCTAACTC the switch fluorescence ratio was 1.3.
With AAGCTAAGGG the switch fluorescence ratio was 0.992.
Sequence AAGCTATACA has a switch fluorescence ratio of 1.37.
In the case of AAGCTATATC, the switch fluorescence ratio is reported as 1.77.
AAGCTATGTT was tested, and the switch fluorescence ratio was 1.
Work on AAGCTCTCAT yielded a switch fluorescence ratio of 0.999.
With AAGCTGACGG the switch fluorescence ratio was 1.07.
Work on AAGCTGATCG yielded a switch fluorescence ratio of 1.01.
In the case of AAGCTGCAAC, the switch fluorescence ratio is reported as 1.18.
AAGCTGGGAT gave a switch fluorescence ratio of 0.991.
With AAGCTGGGGC the switch fluorescence ratio was 1.01.
AAGCTGGGTT was tested, and the switch fluorescence ratio was 0.964.
AAGCTTACAG showed a switch fluorescence ratio of 1.09.
For AAGCTTGCGG, the switch fluorescence ratio was 1.05.
AAGCTTTCTT showed a switch fluorescence ratio of 1.03.
For AAGCTTTTAG, the switch fluorescence ratio was 0.992.
AAGGAAAGTG gave a switch fluorescence ratio of 0.995.
AAGGAACGTC gave a switch fluorescence ratio of 0.984.
AAGGAAGATT was tested, and the switch fluorescence ratio was 1.01.
With AAGGAAGCGG the switch fluorescence ratio was 1.01.
Sequence AAGGAGATCG has a switch fluorescence ratio of 1.07.
AAGGAGCGAT gave a switch fluorescence ratio of 1.11.
Sequence AAGGAGGAC has a switch fluorescence ratio of 1.13.
AAGGAGGAGG was tested, and the switch fluorescence ratio was 0.972.
In the case of AAGGAGTCGT, the switch fluorescence ratio is reported as 1.02.
With AAGGATCAAC the switch fluorescence ratio was 1.
With AAGGATTCAG the switch fluorescence ratio was 0.986.
Sequence AAGGCAAGG has a switch fluorescence ratio of 0.986.
In the case of AAGGCAATAT, the switch fluorescence ratio is reported as 3.35.
With AAGGCACGAT the switch fluorescence ratio was 1.04.
With AAGGCATAGA the switch fluorescence ratio was 0.957.
For AAGGCATTAA, the switch fluorescence ratio was 1.23.
AAGGCATTGG gave a switch fluorescence ratio of 0.997.
Sequence AAGGCCTCTA has a switch fluorescence ratio of 1.01.
For AAGGCGACGG, the switch fluorescence ratio was 0.968.
In the case of AAGGCTGCTC, the switch fluorescence ratio is reported as 1.02.
With AAGGGATGTG the switch fluorescence ratio was 1.01.
With AAGGGCATG the switch fluorescence ratio was 1.
AAGGGCCAGG was tested, and the switch fluorescence ratio was 0.987.
Work on AAGGGGTTC yielded a switch fluorescence ratio of 0.963.
In the case of AAGGGTAGTG, the switch fluorescence ratio is reported as 1.02.
With AAGGGTCCTA the switch fluorescence ratio was 0.989.
In the case of AAGGTAGGT, the switch fluorescence ratio is reported as 0.984.
AAGGTCCGTC showed a switch fluorescence ratio of 1.03.
Sequence AAGGTGGACG has a switch fluorescence ratio of 0.962.
With AAGGTGGAGA the switch fluorescence ratio was 1.02.
Sequence AAGGTGGCGG has a switch fluorescence ratio of 0.982.
For AAGGTTCCCC, the switch fluorescence ratio was 0.983.
AAGGTTTAGA was tested, and the switch fluorescence ratio was 1.01.
With AAGTAAGTC the switch fluorescence ratio was 0.984.
In the case of AAGTAAGTTC, the switch fluorescence ratio is reported as 0.999.
AAGTACATGG showed a switch fluorescence ratio of 1.18.
AAGTACCTTT was tested, and the switch fluorescence ratio was 1.2.
With AAGTAGGGC the switch fluorescence ratio was 1.03.
In the case of AAGTAT, the switch fluorescence ratio is reported as 1.01.
Work on AAGTATAGAG yielded a switch fluorescence ratio of 1.01.
For AAGTATAGCC, the switch fluorescence ratio was 1.
AAGTATAGGC showed a switch fluorescence ratio of 1.07.
In the case of AAGTATCGCG, the switch fluorescence ratio is reported as 0.994.
Work on AAGTATGT yielded a switch fluorescence ratio of 1.03.
For AAGTATGTG, the switch fluorescence ratio was 0.996.
AAGTATTCCC was tested, and the switch fluorescence ratio was 1.05.
AAGTCATAGG was tested, and the switch fluorescence ratio was 1.01.
For AAGTCCTATA, the switch fluorescence ratio was 0.997.
AAGTCGAAGG gave a switch fluorescence ratio of 1.02.
Work on AAGTCGCAAC yielded a switch fluorescence ratio of 1.18.
For AAGTCGGTCA, the switch fluorescence ratio was 0.989.
Work on AAGTCGTAC yielded a switch fluorescence ratio of 1.03.
Work on AAGTCGTGGG yielded a switch fluorescence ratio of 0.99.
AAGTCTCCC showed a switch fluorescence ratio of 1.06.
In the case of AAGTCTGGGT, the switch fluorescence ratio is reported as 1.01.
Sequence AAGTCTGTCA has a switch fluorescence ratio of 0.99.
Work on AAGTCTTATG yielded a switch fluorescence ratio of 1.01.
In the case of AAGTGCAGAC, the switch fluorescence ratio is reported as 1.08.
AAGTGCTCTA was tested, and the switch fluorescence ratio was 0.963.
AAGTGGAGTT showed a switch fluorescence ratio of 0.991.
AAGTGTCCGG showed a switch fluorescence ratio of 0.962.
AAGTGTCGCG was tested, and the switch fluorescence ratio was 1.03.
With AAGTGTGGTG the switch fluorescence ratio was 0.995.
AAGTTATAGG gave a switch fluorescence ratio of 1.03.
In the case of AAGTTATT, the switch fluorescence ratio is reported as 0.988.
Sequence AAGTTATTTC has a switch fluorescence ratio of 1.03.
For AAGTTCCGGT, the switch fluorescence ratio was 0.989.
For AAGTTCGACT, the switch fluorescence ratio was 1.01.
AAGTTGAGAG gave a switch fluorescence ratio of 0.96.
AAGTTGATAT gave a switch fluorescence ratio of 1.

— the supplement of paper PMC10126150
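Note: ATP exposure 15 min at 22 °C before imaging.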
